# Test results: PubChem BioAssay AID1345082 (National Center for Advancing Translational Sciences (NCATS), 2018)
# About 4,000 (4.3%) of roughly 94,000 compounds were called active. Inconclusive means that the source gave no clear call. Such entries were picked first, then a sample of the others. Calls follow the shape of the dose curve; as a rule, active = well fitted inhibition curve with a large enough effect; inconclusive = small, poorly fitted or top-dose-only effect; inactive = no such curve, though single readings can be large or run the other way. Potencies beside an inconclusive call are fits to weak or partial responses and may not hold up.
# Assay: Cytotoxic Profiling in NIH 3T3 Cell Line of Diverse Libraries Using Quantitative High-Throughput Screening; also: nearly all actives have a fitted effect of over 55% in size
# Details: NIH 3T3 viability, CellTiter-Glo ATP luminescence, 48-72 h; series mostly up to 96.7 µM
# Method in brief: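 Cytotoxicity was measured by CellTiter-Glo ATP luminescence after 48 or 72 h compound exposure at 37 °C. Mouse NIH 3T3 fibroblasts were seeded at 400 cells/well and dosed by 23 nL pin transfer.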
# Potency is read from the fitted curve at half-maximal effect; tags tell the direction and shape of the fitted curve.
row,Structure (SMILES),Potency
1,CN1CCC(OC2CCN(S(=O)(=O)c3ccc(F)cc3F)CC2)CC1,"inconclusive: 44.7 µM [inhibitor, partial curve, poor fit]"
2,Cc1cccc2nc(CNC(=O)c3cc(COc4ccc(F)cc4F)on3)cn12,active: 31.6 µM
3,Cc1ccc(C2NC(=O)N(CC(=O)NCCc3ccc(Cl)cc3)C3=C2C(=O)OC3)cc1 (configuration not stated),"inconclusive: 39.8 µM [inhibitor, partial curve, poor fit]"
4,CNC(=O)CNC(=O)c1cccc(-c2ccc(SC)cc2)c1,"inconclusive: 79.4 µM [inhibitor, partial curve, poor fit]"
5,CCCC(O)CN1CCC(=O)N(CC2CC2)Cc2ccccc21 (configuration not stated),inactive
6,CC(C)(Oc1nn(CCOc2ccccc2)c2ccccc12)C(=O)NCCCn1ccnc1,"inconclusive: 50.1 µM [inhibitor, partial curve, poor fit]"
7,O=C(NC1CCN(c2nccc(Nc3ccccc3Cl)n2)CC1)c1ccc(C(F)(F)F)cc1,active: 31.6 µM
8,O=C(Nc1ccccc1F)N1CC(Oc2ccc(-c3nc(-c4ccccc4)no3)cc2)C1,inactive
9,Cc1cc(C)cc(Nc2nc(C)cc(=O)n2CC(=O)Nc2ccc(Br)cc2)c1,"inconclusive: 44.7 µM [inhibitor, partial curve, poor fit]"
10,Nc1ncccc1CN1CCC2(CC1)COCCN2C(=O)OCc1ccccc1,"inconclusive: 8.91 µM [inhibitor, full curve, poor fit]"
11,C[S+](=O)([O-])c1ccc(-c2nnc3ccc(C(=O)NCc4cccs4)cn23)cc1,inactive
12,Cc1cn2nc(C(=O)NC(C)c3ccccc3)cc2c(N2CCSCC2)n1 (configuration not stated),"inconclusive: 56.2 µM [inhibitor, partial curve, poor fit]"
13,COc1ccc(C(=O)N2CCCCCCNC(=O)[C@@H]3C[C@@H](c4nc(C(C)C)no4)C[C@@H]32)cn1,inactive
14,Cc1cnc(-c2ccncc2)n1CCC1CCN(C(=O)C(C)Oc2ccccc2)CC1 (configuration not stated),"inconclusive: 50.1 µM [inhibitor, partial curve, poor fit]"
15,CCN(CC)C(=O)N1CCO[C@@H](COc2ccccn2)[C@@H]1c1ccccc1,inactive
16,CCC(C)NC(=O)CC1=CSC2=NC(C)=C(C(=O)Nc3ccccc3)C(c3cccc(C)c3)N12 (configuration not stated),inactive
17,O=C1CC2(CCN([S+](=O)([O-])c3ccccc3)C2)Nc2ccccc2N1 (configuration not stated),inactive
18,CNC(=O)c1cccc(Nc2ncc3c(n2)CN([S+](=O)([O-])c2cccc(OC)c2)CCN3)c1,"inconclusive: 35.5 µM [inhibitor, partial curve]"
19,COc1ccc(C(=O)N2CCC3(CC2)N=C(c2ccc(Br)cc2)NO3)cc1OC,inactive
20,COc1ccccc1-c1ccc(C(=O)N2CCCC[C@H](N(C)C)C2)cc1,"inconclusive: 50.1 µM [inhibitor, partial curve, poor fit]"
21,O[C@@H]1C[C@@H](c2nc(-c3ccccn3)no2)N(Cc2cccs2)C1,inactive
22,O=C(c1ccccc1)N1CCC(NCCN2CCCCC2CO)CC1 (configuration not stated),inactive
23,CCN1Cc2cc(OC)ccc2N(C[C@@H](O)COCc2ccccc2)CCC1=O,"inconclusive: 39.8 µM [inhibitor, partial curve, poor fit]"

row,Structure (SMILES),Potency
1,Cc1ccc(-c2ncc(C(=O)NCCN(C)C3CCCCC3)c(-c3ccncc3)n2)cc1,active: 25.1 µM
2,Cc1cc(C(=O)N2CCC3(CC2)c2[nH]c4ccccc4c2CCN3C)n(C)n1,inactive
3,Cc1cc(C)cc(C(=O)N2CCC(CC(=O)NCc3ccccc3)C2)c1 (configuration not stated),inactive
4,Cc1ccc(CN2CCC(N3CCCCCC3=O)CC2)cc1,inactive
5,Cc1onc(-c2cnn(C)c2NCc2ccc(C#N)cc2)c1C(=O)NC1CCCCC1,"inconclusive: 31.6 µM [inhibitor, full curve, poor fit]"
6,O=C(NCc1ccccn1)C1c2ccccc2C(=O)N(c2ccccc2)C12CCCCC2 (configuration not stated),"inconclusive: 50.1 µM [inhibitor, partial curve, poor fit]"
7,COc1ccc(C(=O)NC2CCCN(c3cc(-c4ccc(Cl)cc4)[nH]n3)C2)cc1OC (configuration not stated),"inconclusive: 44.7 µM [inhibitor, partial curve, poor fit]"
8,Cn1c(C(=O)NCCN2CCOCC2)nc2nc(-c3ccccc3)c(Cl)cc21,"inconclusive: 89.1 µM [inhibitor, partial curve, poor fit]"
9,Cn1c(C(=O)N2CCn3nc(Cc4ccccc4)cc3C2)cc2ccccc21,"inconclusive: 50.1 µM [inhibitor, partial curve, poor fit]"
10,CS(=O)(=O)Nc1ccc(C2(C(=O)NC3CCCCCC3)CCCCC2)cc1,inactive
11,CCCC1c2nccn2CCCN1C(=O)c1ccncc1F (configuration not stated),inactive
12,O=C(NC1CCCCCCC1)c1ccc(Cn2ccn3nc4c(c3c2=O)CCCC4)cc1,"inconclusive: 35.5 µM [inhibitor, full curve, poor fit]"
13,O=C(NCCc1noc(-c2cccnc2)n1)C1CCC1,"inconclusive: 39.8 µM [inhibitor, partial curve]"
14,COc1cccc(-c2cccc(C(=O)N3CCCC3C(=O)NCc3ccc(C(F)(F)F)cc3)c2)c1 (configuration not stated),"inconclusive: 50.1 µM [inhibitor, partial curve, poor fit]"
15,O=C(c1cn2cc(-c3ccc(F)cc3)sc2n1)N1CCOCC1,inactive
16,Cn1cc2c3c(cccc31)CN(C(=O)c1ccc(F)c(Cl)c1)CC2,"inconclusive: 50.1 µM [inhibitor, partial curve, poor fit]"
17,COc1ccc(CN2Cc3cc(NC(=O)c4ccc(Cl)cc4)ccc3OC(C)C2=O)c(OC)c1 (configuration not stated),"inconclusive: 25.1 µM [inhibitor, partial curve]"
18,Cc1ccc(CN2CCC(c3nnc(CN(C)C)n3C3CC3)CC2)o1,inactive
19,O=C(Nc1ccccc1)N1CCc2nc(C3CC3)nc(-c3ccc(Cl)cc3)c2C1,"inconclusive: 50.1 µM [inhibitor, partial curve, poor fit]"
20,O=C(c1ccc[nH]1)N1CCC(n2cc(-c3nc(C4CC4)no3)nn2)C1 (configuration not stated),inactive
21,Fc1ccc(-c2cc(CC3(NCc4ccc(OC(F)(F)F)cc4)COC3)no2)cc1,active: 100 µM
22,CNC(=O)c1cc(C2CC2)nc2onc(C3CCN(C(=O)c4cccnc4)CC3)c12,inactive
23,O=[S+]([O-])(c1cccc(C(F)(F)F)c1)N1CCN(Cc2ccccc2-c2ccccc2F)CC1,"inconclusive: 44.7 µM [inhibitor, partial curve, poor fit]"

row,Structure (SMILES),Potency
1,CC(C)C(=O)N1Cc2ccccc2OC2(CCN(C(C)C)CC2)C1,inactive
2,CN(C)Cc1cn2c(=O)n(C)cc(-c3cccc(OC(F)(F)F)c3)c2n1,"inconclusive: 100 µM [inhibitor, single point]"
3,COc1ccc(C(CC(=O)N2CCCCC2)c2c[nH]c3ccccc23)cc1OC (configuration not stated),inactive
4,CSc1ccc(-c2cccc(CN3CCC(NC(=O)Nc4ccccc4)CC3)c2)cc1,active: 14.1 µM
5,C[C@@]12CCC(=O)C[C@@H]1C[C@H](OC(=O)Nc1ccccc1)CC2,"inconclusive: 44.7 µM [inhibitor, partial curve, poor fit]"
6,CN(C)C[C@@H]1CN(Cc2ccncc2)C[C@H]1NC(=O)c1ccc(Cl)cc1,"inconclusive: 50.1 µM [inhibitor, partial curve, poor fit]"
7,O=C(Nc1ccc(C2(C(=O)NCC3CC3)CCCCC2)cc1)C1CC1,inactive
8,Cc1ccc(-c2ccc3nnc(CNC(=O)c4cccnc4)n3n2)cc1C,"inconclusive: 56.2 µM [inhibitor, partial curve, poor fit]"
9,O=C(CC1CCCC1)NC1CCN(C(=O)N2CC3CC(C2)[C@H]2CCCC(=O)N2C3)CC1 (some centres not stated),inactive
10,COCC(=O)N1CCN(C(=O)c2nc3cccnc3n(Cc3ccc(OC)cc3)c2=O)CC1,inactive
11,COc1cccc(CN2Cc3cc(NC(=O)c4cccc(F)c4)ccc3OC(C)C2=O)c1OC (configuration not stated),inactive
12,CSc1cccc(NC(=O)Cn2nc3c(cc2=O)CCCCC3)c1,"inconclusive: 70.8 µM [inhibitor, single point]"
13,Cc1cc(S(=O)(=O)N2CCC3(CCC(=O)N(Cc4ccccc4)CC3)CC2)ccc1F,"inconclusive: 44.7 µM [inhibitor, partial curve, poor fit]"
14,O=C1CC(c2ccccc2)N(C(=O)C2CC2)CCCN(C(=O)c2c[nH]c3ccccc23)CCN1 (configuration not stated),"inconclusive: 35.5 µM [inhibitor, partial curve, poor fit]"
15,CC(C)(Oc1ccccc1)C(=O)N1CCC2(CC1)CNC(C(=O)O)C2 (configuration not stated),inactive
16,O=C(NC1CCN(Cc2ccccc2)CC1)c1cccc2c1CCN2C(=O)c1ccccc1,"inconclusive: 39.8 µM [inhibitor, partial curve, poor fit]"
17,CN1C(=O)C2(CCN(C(=O)C3(c4ccccc4)CC3)CC2)c2ccccc21,"inconclusive: 50.1 µM [inhibitor, partial curve, poor fit]"
18,CNC(=O)c1cc(C2CC2)nc2onc(C3CCCN3[S+](=O)([O-])c3cccc(C(F)(F)F)c3)c12 (configuration not stated),"inconclusive: 50.1 µM [inhibitor, partial curve, poor fit]"
19,CCOC(=O)C1CCN(C(=O)Cc2cccn2-c2ccc(F)cc2)CC1,inactive
20,COCC1CCCN(C(=O)c2cc(Cn3c(C)nc4ccccc43)[nH]n2)C1 (configuration not stated),inactive
21,COc1ccc(CNC(=O)c2cc(-c3ccccc3C(F)(F)F)nc3c2cnn3C)cc1,"inconclusive: 15.8 µM [inhibitor, full curve]"
